# Data: PubChem BioAssay (Tox21)
# “And” between values parts separate entries of the source, which are not always exact repeats. Equal values may be shown once. Inconclusive means that the source gave no clear call. Such entries were picked first, then a sample of the others. For some of these results: A potency beside an inconclusive call is a rough fit, not a confirmed value. A structure can be active in one record and inactive in another. The source made the active and inactive calls. Unless noted, calls come from the whole dose curve; as a rule, active = well fitted curve in the direction sought with a large enough effect in the repeat runs; inconclusive = weak or mixed curves; inactive = no such curve, though single readings can be large; an effect the other way counts as inactive or inconclusive.
# Key:
# [1] = biological target: Estrogen receptor (Homo sapiens) (UniProt P03372); experiment: qHTS assay to identify small molecule agonists of the estrogen receptor alpha (ER-alpha) signaling pathway using the BG1 cell line (AID 743079); details: BG1Luc4E2 cells, ERE-luciferase agonist, 22 h; activation: at 70.3 µM (top of the series) unless noted; note: nearly all actives have a fitted effect of over 20% in size; note: potency is the fitted concentration of half-maximal effect; for activation: % is set by controls: 0 for no effect and ±100 for the full control effect
# Chain of UniProt P03372 (P03372 whole entry, looked up): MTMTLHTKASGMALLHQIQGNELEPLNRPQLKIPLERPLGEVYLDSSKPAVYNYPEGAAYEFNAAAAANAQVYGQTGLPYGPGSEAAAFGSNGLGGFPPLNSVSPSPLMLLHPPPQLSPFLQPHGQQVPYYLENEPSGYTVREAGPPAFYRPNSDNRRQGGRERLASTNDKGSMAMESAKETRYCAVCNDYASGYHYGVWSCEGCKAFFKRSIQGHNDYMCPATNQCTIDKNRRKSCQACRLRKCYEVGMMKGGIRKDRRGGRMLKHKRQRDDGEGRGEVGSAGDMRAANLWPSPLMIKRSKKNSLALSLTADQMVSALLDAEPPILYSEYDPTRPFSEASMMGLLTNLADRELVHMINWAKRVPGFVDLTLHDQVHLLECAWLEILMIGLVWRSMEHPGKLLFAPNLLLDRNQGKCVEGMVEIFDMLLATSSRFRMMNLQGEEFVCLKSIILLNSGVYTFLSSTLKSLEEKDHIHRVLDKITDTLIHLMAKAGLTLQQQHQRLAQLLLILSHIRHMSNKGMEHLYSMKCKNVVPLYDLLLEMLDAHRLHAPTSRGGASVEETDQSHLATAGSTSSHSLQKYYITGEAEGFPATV
# [2] = biological target: Peroxisome proliferator-activated receptor gamma (Homo sapiens) (UniProt P37231); experiment: qHTS assay to identify small molecule agonists of the peroxisome proliferator-activated receptor gamma (PPARg) signaling pathway (AID 743094; active = well fitted activation curve with a large enough effect in the signal ratio in the repeat runs, not every such curve was filed as active; inconclusive = weak or mixed curves, or effect the other way; inactive = no such curve, though single readings can be large or run the other way; the % refers to the signal ratio; note: potency is the fitted concentration of half-maximal effect; for activation: % is set by controls: 0 for no effect and ±100 for the full control effect); details: HEK293H PPARg-UAS-bla, beta-lactamase FRET ratio, 17 h; activation: at 57 µM (top of the series) unless noted
# Chain of UniProt P37231 (P37231 whole entry, looked up): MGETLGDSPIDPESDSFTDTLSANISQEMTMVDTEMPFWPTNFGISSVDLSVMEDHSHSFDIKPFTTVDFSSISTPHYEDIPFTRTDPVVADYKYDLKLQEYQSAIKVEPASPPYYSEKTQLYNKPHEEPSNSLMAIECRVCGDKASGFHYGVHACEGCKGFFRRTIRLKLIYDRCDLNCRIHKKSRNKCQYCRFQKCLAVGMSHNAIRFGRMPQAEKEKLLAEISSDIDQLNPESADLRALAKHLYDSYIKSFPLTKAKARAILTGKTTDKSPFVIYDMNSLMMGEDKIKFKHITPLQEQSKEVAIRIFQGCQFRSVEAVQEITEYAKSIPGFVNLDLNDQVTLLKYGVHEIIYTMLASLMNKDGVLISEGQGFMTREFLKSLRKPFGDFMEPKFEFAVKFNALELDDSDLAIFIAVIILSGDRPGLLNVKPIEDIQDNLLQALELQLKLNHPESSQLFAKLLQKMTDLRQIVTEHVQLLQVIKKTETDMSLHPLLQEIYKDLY
# How it was run: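 Agonism was assessed in a beta-lactamase reporter system, HEK293H cells with a stably integrated UAS-bla construct under PPARg control; the 17 h treatment at 37C preceded a 1 h room-temperature FRET substrate read.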
# [3] = biological target: Peroxisome proliferator-activated receptor gamma (Homo sapiens) (UniProt P37231); experiment: qHTS assay to identify small molecule antagonists of the peroxisome proliferator-activated receptor gamma (PPARg) signaling pathway (AID 743191; calls by dose curve; note: nearly all actives have a fitted effect of over 30% in size; note: potency is the fitted concentration of half-maximal effect; for ratio activity, negative = inhibition: % is set by controls: 0 for no effect and ±100 for the full control effect); details: HEK293H PPARg-UAS-bla, beta-lactamase ratio, antagonist, 17 h
# How it was run: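 GeneBLAzer PPARg UAS-bla HEK293H cells, 5 h post-plating, exposed to compounds 17 h at 37C. LiveBLAzer B/G FRET substrate added for 1 h at room temperature; beta-lactamase reporter read by fluorescence intensity.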
# [4] = biological target: Aryl hydrocarbon receptor (Homo sapiens) (UniProt P35869); experiment: qHTS assay to identify small molecule that activate the aryl hydrocarbon receptor (AhR) signaling pathway (AID 743085); note: potency is the fitted concentration of half-maximal effect; nearly all actives have a fitted effect of over 15% in size
# Chain of UniProt P35869 (P35869 whole entry, looked up): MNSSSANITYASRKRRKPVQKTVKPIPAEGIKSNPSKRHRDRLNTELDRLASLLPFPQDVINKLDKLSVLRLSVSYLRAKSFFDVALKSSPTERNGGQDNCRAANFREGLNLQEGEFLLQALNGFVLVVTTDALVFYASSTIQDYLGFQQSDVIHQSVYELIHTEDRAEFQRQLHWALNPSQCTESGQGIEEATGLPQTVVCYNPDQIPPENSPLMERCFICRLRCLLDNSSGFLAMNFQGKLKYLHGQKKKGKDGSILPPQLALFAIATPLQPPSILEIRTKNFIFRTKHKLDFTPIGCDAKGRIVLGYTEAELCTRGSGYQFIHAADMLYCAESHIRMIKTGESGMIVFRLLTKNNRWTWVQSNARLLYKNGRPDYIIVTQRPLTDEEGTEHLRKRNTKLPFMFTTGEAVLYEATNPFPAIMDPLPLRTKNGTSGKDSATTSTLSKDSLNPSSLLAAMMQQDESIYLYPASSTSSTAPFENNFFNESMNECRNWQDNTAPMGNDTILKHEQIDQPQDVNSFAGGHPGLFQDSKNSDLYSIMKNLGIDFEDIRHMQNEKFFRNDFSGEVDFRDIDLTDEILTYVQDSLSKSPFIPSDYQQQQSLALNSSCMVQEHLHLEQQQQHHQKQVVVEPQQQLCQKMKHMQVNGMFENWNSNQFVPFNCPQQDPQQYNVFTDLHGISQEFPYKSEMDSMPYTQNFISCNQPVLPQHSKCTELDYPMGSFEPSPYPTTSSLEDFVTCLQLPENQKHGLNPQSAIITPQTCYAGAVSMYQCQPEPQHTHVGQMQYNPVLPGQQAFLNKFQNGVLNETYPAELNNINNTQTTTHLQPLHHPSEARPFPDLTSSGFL
# How it was run: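 Measured in HG2L7.5c1 cells: CellTiter-Fluor signal (30 min incubation, 37C) for viability, then luciferase luminescence (30 min, room temperature). Compound contact time was 24 h at 37C, following a 5 h pre-incubation.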
# [5] = qHTS assay to identify small molecule antagonists of the peroxisome proliferator-activated receptor gamma (PPARg) signaling pathway - cell viability counter screen (AID 743194); details: PPARg-bla HEK293H viability, CellTiter-Glo luminescence, 17 h, co-treated with 50 nM rosiglitazone; activity change, negative = cytotoxicity: at 62.6 µM (top of the series) unless noted; note: % is set by controls: 0 for no effect and ±100 for the full control effect; nearly all actives have a fitted effect of over 55% in size
# How it was run: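 Cytotoxicity counter screen in PPARg-bla HEK293H cells, same wells as reporter assay. Compounds plus 50 nM rosiglitazone (final) for 17 h at 37 C, then viability read by CellTiter-Glo luminescence.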
# [6] = ratio activity, negative = inhibition: at 62.6 µM (top of the series) unless noted
# Tags give direction and shape of the fitted curve or compound fluorescence and quenching.
smiles,measurement,setting,value
CCCCCCCCCCCC(=O)N(C)CC(=O)O,activation,[1],inconclusive: -10.1% [phenotype inactive]
same,Potency,[2],active: 15 µM
same,activation,[2],inactive: 0.467% [at 7.08 µM]
same,"ratio activity, negative = inhibition",[3]; at 5.95 µM (top of the series),inactive: 4.34%
same,"ratio activity, negative = inhibition",[3]; [6],inconclusive: 0.549%
Cc1ccc(C(N)=O)cc1N,Potency,[1],inactive
same,Potency,[4],"inconclusive: 77 µM [activator, partial curve, poor fit]"
same,"ratio activity, negative = inhibition",[3]; [6],inconclusive: 3.51%
CCN1C=CN(C)C1C (stereo unspecified),Potency,[1],inactive
same,"ratio activity, negative = inhibition",[3]; [6],inconclusive: 5.5% [at 81.1 µM]
O=C(O)c1ccc2cc(O)ccc2c1,activation,[1],inconclusive: 5.56% [phenotype inactive]
same,Potency,[3]; [6],inactive
CC(C)(O)CCCC1=CCC(C=O)CC1 (stereo unspecified),Potency,[1],active: 58.1 µM
same,"ratio activity, negative = inhibition",[3]; [6],inconclusive: 5.08% [at 81.1 µM]
C[C@]12C(=O)OC(=O)[C@H]1[C@H]1C=C[C@@H]2C1,activation,[1],inconclusive: -7.45% [phenotype inactive] [at 95 µM]
same,Potency,[3]; [6],inactive
Cc1ccc(=O)n(-c2ccccc2)c1,activation,[1],inconclusive: 5.34% [activator]
same,Potency,[3]; [6],inactive
Cc1cccc(O)c1,Potency,[1],inactive
same,"ratio activity, negative = inhibition",[3]; [6],inconclusive: 1.76%
CC(=O)c1nccs1,Potency,[1],inactive and active: 48.6 µM
same,"ratio activity, negative = inhibition",[3]; [6],inconclusive: -13.1%
OCC(O)CS (stereo unspecified),Potency,[1],active: 11.9 µM and inactive
same,Potency,[3]; [6],inactive
CCOC(=O)CCC(C)=O,Potency,[1],"inconclusive: 48.6 µM [activator, partial curve]"
same,Potency,[3]; [6],"inconclusive: 3.89 µM [activator, full curve, poor fit]"
CC[N+](C)(CC)CCOC(=O)C(O)(c1ccccc1)C1CCCCC1 (stereo unspecified),Potency,[1],"inconclusive: 29.8 µM [activator, partial curve]"
same,"ratio activity, negative = inhibition",[3]; [6],inconclusive: 24.4%
O=C(OCCOCCOC(=O)c1ccccc1)c1ccccc1,activation,[1],inconclusive: 0.788% [phenotype inactive]
same,"ratio activity, negative = inhibition",[3]; [6],inconclusive: 19.4%
Cc1noc(NS(=O)(=O)c2ccc(N)cc2)c1C,Potency,[1],active: 29.8 µM and inactive
same,"ratio activity, negative = inhibition",[3]; [6],inconclusive: -1.36%
CC(C)(C)Cl,Potency,[1],active: 64.4 µM
same,Potency,[3]; [6],inactive
Cn1cc[nH]c1=S,activation,[1],inconclusive: 14.1% [phenotype inactive]
same,"ratio activity, negative = inhibition",[3]; at 62.6 µM (top of the series),inactive: -1.34% and inactive: -1.42%
same,"ratio activity, negative = inhibition",[3]; [6],inconclusive: -1.75%
O=C1C=CC(=O)O1,Potency,[1],inactive
same,Potency,[3]; [6],inactive
CCC(C)(C)C1CCC(O)CC1 (stereo unspecified),Potency,[1],"inconclusive: 61.1 µM [activator, partial curve]"
same,"ratio activity, negative = inhibition",[3]; [6],inconclusive: 10.1%
CC[C@H](C)[C@@H](C(=O)O)n1sc2ccccc2c1=O,Potency,[1],inactive
same,Potency,[3]; [6],"inconclusive: 21.9 µM [activator, single point]"
COc1ccc2c(c1)c1c3n2CCN(C)C3=NCC1,Potency,[1],inactive
same,Potency,[3]; [6],inactive
same,"activity change, negative = cytotoxicity",[5],inconclusive: 11.1% [cytotoxic]
Cc1c(N)cccc1[N+](=O)[O-],activation,[1],inconclusive: 4.31% [phenotype inactive] [at 95 µM]
same,Potency,[3]; [6],inactive
CC(C)(O)Cc1ccccc1,Potency,[1],inactive
same,Potency,[3]; [6],inactive
CCOC(=O)C1CC(=O)C(=C(O)C2CC2)C(=O)C1 (stereo unspecified),Potency,[1],inactive
same,Potency,[3]; [6],inactive
O=S(=O)(Oc1ccc(Cl)cc1)c1ccccc1,activation,[1],inconclusive: 5.52% [phenotype inactive]
same,"ratio activity, negative = inhibition",[3]; [6],inconclusive: -22.6%
CN(C)CCCN,Potency,[1],inactive
same,"ratio activity, negative = inhibition",[3]; at 62.6 µM (top of the series),inconclusive: -26.8%
same,"ratio activity, negative = inhibition",[3]; at 81.1 µM (top of the series),inconclusive: 13.4%
OCCCC1CCCCC1,Potency,[1],inactive
same,"ratio activity, negative = inhibition",[3]; [6],inconclusive: 15.7%
same,Potency,[5],inactive
CCOCCOCC,Potency,[1],inactive
same,"ratio activity, negative = inhibition",[3]; [6],inconclusive: 12.1% [at 81.1 µM]
CCCCOCCOCCOCCOCCO,activation,[1],inconclusive: 5.25% [phenotype inactive]
same,"ratio activity, negative = inhibition",[3]; [6],inconclusive: 1.89%
CCCCCCCCSCC,Potency,[1],inactive
same,"ratio activity, negative = inhibition",[3]; [6],inconclusive: 18.6%
Cc1ccc2c(c1)OCC(=O)CO2,Potency,[1],"inconclusive: 48.6 µM [activator, partial curve]"
same,Potency,[3]; [6],inactive
CCN(CC)C(C)CN1c2ccccc2Sc2ccccc21 (stereo unspecified),Potency,[1],inactive
same,Potency,[3]; [6],inactive
O=[N+]([O-])c1ccc(Oc2ccc([N+](=O)[O-])cc2)cc1,Potency,[1],inactive
same,"ratio activity, negative = inhibition",[3]; [6],inconclusive: -2.85% [at 81.1 µM]
Cc1ccncc1,Potency,[1],inactive
same,Potency,[3]; [6],inactive
CCN(Cc1cccc(S(=O)(=O)O)c1)c1ccc(C(=C2C=CC(=[N+](CC)Cc3cccc(S(=O)(=O)[O-])c3)C=C2)c2ccccc2)cc1,Potency,[1],inactive
same,"ratio activity, negative = inhibition",[3]; [6],inconclusive: -48.2%
